The other results are listed elsewhere or left out.

The assay has as its target T1, OsWOX13 (Oryza sativa, UniProt Q5QMM3 1-267).
T1 sequence: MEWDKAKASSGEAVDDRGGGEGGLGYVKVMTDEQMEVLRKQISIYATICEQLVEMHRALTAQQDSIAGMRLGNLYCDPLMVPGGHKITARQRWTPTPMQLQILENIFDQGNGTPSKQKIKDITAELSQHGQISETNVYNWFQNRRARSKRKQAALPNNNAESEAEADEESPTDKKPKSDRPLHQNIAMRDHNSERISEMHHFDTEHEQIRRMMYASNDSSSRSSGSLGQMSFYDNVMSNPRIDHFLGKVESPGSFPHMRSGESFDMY
Briefly: protein-binding microarray (RPBM); PBS, 2% BSA, 51.3 ng/ul salmon testes DNA, 50 uM zinc acetate, 200 nM TF, 25 C, 1 h; high values mean tight binding. The settings on record: protein: recombinant; tags: N-terminal polyhistidine and DsRed monomer fusion (pET32a); label: CyDye5-dUTP incorporated in the synthesized complementary strand; 3' TTTTT single-stranded linker to array surface; dsDNA, one strand shown. An outline of the steps: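 Transcription factors, each fused N-terminally to a polyhistidine tag and DsRed, were expressed in E. coli BL21-CodonPlus and purified on Ni–NTA. A custom Agilent array was made double-stranded by primer extension with Cy5-dUTP and blocked with 2% BSA. It was incubated with 200 nM protein in PBS, 2% BSA, salmon testes DNA and 50 µM zinc acetate at 25 °C for 1 h, then washed. The binding signal is per-feature fluorescence intensity (arbitrary units) read on an Axon 4000B scanner.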
On to “CTTATCAATTTATGATAGATAGAAAGTTACAAGCCAATATCGGAGTCACCTAGTGCAG”, for which the binding signal is 14800 fluorescence intensity (a.u.). As for “ACAAATTTGTTCAAATTTTGTTAGGATTTGTAGTGAAACTCGGAGTCACCTAGTGCAG”, the binding signal was 7120 fluorescence intensity (a.u.). Then “CCCAAATTCCCTCTCCTCTGATTGGCCCATCCGCCCCTCCCGGAGTCACCTAGTGCAG”, with 22900 fluorescence intensity (a.u.); and “CTACAACATGATTAGCTAGATATATAGGCATGTAGAACGCCGGAGTCACCTAGTGCAG”, with 23900 fluorescence intensity (a.u.). Consider “CAGCCCAATAATTATGGGCCGTTGTTTGGGCTTTGGGCCGCGGAGTCACCTAGTGCAG”, for which the binding signal was 4490 fluorescence intensity (a.u.). Then “GAAAATTATGTACATCCTCCGCTTAAAGATGACTATGAATCGGAGTCACCTAGTGCAG”, with 4540 fluorescence intensity (a.u.). On to “AATCAAATTGCCACTTAAATCTATTGCCTCAAGTGAACAGCGGAGTCACCTAGTGCAG”, for which the binding signal is 16100 fluorescence intensity (a.u.). Then “CTTAGATGATTAATCTATGGTCCAAAGTATCTCACTGCCTCGGAGTCACCTAGTGCAG”, with 30900 fluorescence intensity (a.u.). Then “GATAAATTTGGTAAACTTAATCCAACAACGAATAGTGGGCCGGAGTCACCTAGTGCAG”, with 17800 fluorescence intensity (a.u.); and “ATAGTTAATGGACCCGCGATATTTGGTTTTGCGGTTCGAGCGGAGTCACCTAGTGCAG”, with 3790 fluorescence intensity (a.u.). As for “CTCTCGCTCGCCATGATTGATCGAGCTCCACCTGCCAATTCGGAGTCACCTAGTGCAG”, the figure is 12900 fluorescence intensity (a.u.); as for “TGTTTAATCAAGGGCTGATGACCCCAACTCTCATAGATATCGGAGTCACCTAGTGCAG”, 3320 fluorescence intensity (a.u.). Regarding “ATAATTTAATTATATATTTTCTTAAGAATACTAAATTATGCGGAGTCACCTAGTGCAG”, the binding signal was 34900 fluorescence intensity (a.u.). “CCATAAAACCTGTGATTATTTGCCACGCTTCATAATACATCGGAGTCACCTAGTGCAG”: the binding signal was 4400 fluorescence intensity (a.u.).

For “CAAAATTAACTTTAAAATTATGTTTTAAAATTTTAAAACTCGGAGTCACCTAGTGCAG”, the binding signal was 8090 fluorescence intensity (a.u.).

Turning to “AGTTATTGATAGGTCTAATATTTCAACGATGCTCATGTACCGGAGTCACCTAGTGCAG”, the binding signal is 17800 fluorescence intensity (a.u.). Turning to “AATGATGAAAATGGTAAAGTGGTGAAGTGTACTCAGTTCACGGAGTCACCTAGTGCAG”, the binding signal is 3650 fluorescence intensity (a.u.). Take “ACTGATGGGCTTGTGCTAAATATCAGCCTCAGCCACAGCACGGAGTCACCTAGTGCAG”: the binding signal is 4230 fluorescence intensity (a.u.). As for “ATTTATGTTAAATTTGTGATTTCAGATCACCAATATCCATCGGAGTCACCTAGTGCAG”, the binding signal was 10900 fluorescence intensity (a.u.). Then “AGTAATGTCACTAATAAAATTACAGCACACACATATGAAACGGAGTCACCTAGTGCAG”, with 5390 fluorescence intensity (a.u.). Then “TCTCGTCGGCTCTGATTAGATTTCTTGATGTCGTGTTAGCCGGAGTCACCTAGTGCAG”, with 11000 fluorescence intensity (a.u.).

Turning to “ACTTGATTTCAGATAGATATCACGAATCTCAACATTTTCACGGAGTCACCTAGTGCAG”, the binding signal is 11300 fluorescence intensity (a.u.). With “AGCTAGTTTGATTAGAAACAGAATTCAGGACAATATATGCCGGAGTCACCTAGTGCAG”, the binding signal is 17700 fluorescence intensity (a.u.).

With “CGGTAATTTTCTAATTTGTCTACAAACGTGGTTGCCTACACGGAGTCACCTAGTGCAG”, the binding signal is 42400 fluorescence intensity (a.u.). Then “TATCCTGGTCAATTGGCAAGTTGACGAAATGCCCCATGAGCGGAGTCACCTAGTGCAG”, with 3780 fluorescence intensity (a.u.). As for “AACCAGATTCACCGTGATTAGTTTCACCCTAGTCTAGTCTCGGAGTCACCTAGTGCAG”, the binding signal is 10800 fluorescence intensity (a.u.). For “CCCTAATTTCCCTTTCCTCGGTTAGTTGAGCGAGTGCTCTCGGAGTCACCTAGTGCAG”, the binding signal is 12500 fluorescence intensity (a.u.). As for “TAAGATAAATGGAGGAACAAATTGTTAGGAACCTGATTGGCGGAGTCACCTAGTGCAG”, the figure is 6000 fluorescence intensity (a.u.); as for “GAGCGATTATAAAATTAATTGCTCCGCGGCTTAAGCCGAGCGGAGTCACCTAGTGCAG”, 5680 fluorescence intensity (a.u.).

In the case of “GGTCTCCACCCGCCAGCGTGATTGACTGTCCTTGGGCCCTCGGAGTCACCTAGTGCAG”, the binding signal was 11500 fluorescence intensity (a.u.).

Take “AATCGTTCTAATTTCAATTAAACTTTTAAATTTTGACGTGCGGAGTCACCTAGTGCAG”: the binding signal was 9420 fluorescence intensity (a.u.). As for “TAGATTAATAACAAAATGAATTACAAATTTCGCATGTAAACGGAGTCACCTAGTGCAG”, the figure is 4200 fluorescence intensity (a.u.); as for “ATGATTATATCCAAAATTGAAATATTTATGATACATAAAACGGAGTCACCTAGTGCAG”, 7660 fluorescence intensity (a.u.). Then “GTTGAAATGATTAGCTTCTGTTGTTTTGTAGGGCCAAGAGCGGAGTCACCTAGTGCAG”, with 21100 fluorescence intensity (a.u.); and “GACAAATTGGTCCAGGAATGTATCAACAAATGACCGAGCACGGAGTCACCTAGTGCAG”, with 9540 fluorescence intensity (a.u.); and “CAAATAAATGGGAAGGAAAATGCTTCCATACACAGTTAGCCGGAGTCACCTAGTGCAG”, with 5550 fluorescence intensity (a.u.). Then “GAAAACAAACAACTGGTGATGACTGATGACTCAGTTTCCGCGGAGTCACCTAGTGCAG”, with 6060 fluorescence intensity (a.u.).

Turning to “CACACTTGATTTTGGGCAACTTGACCATGTAAGAAAGAGCCGGAGTCACCTAGTGCAG”, the binding signal was 3380 fluorescence intensity (a.u.). Turning to “CTAATTTGCATGGTTTTAAATAATTTTAGTTTAGAATTTACGGAGTCACCTAGTGCAG”, the binding signal was 3360 fluorescence intensity (a.u.). For “TATATATATATATATATATATATATATTCGACTTCTATATCGGAGTCACCTAGTGCAG”, the binding signal is 31800 fluorescence intensity (a.u.). Then “CCACAATTAATTTGAGATTACTGCCGTGAAGAGAGAATTCCGGAGTCACCTAGTGCAG”, with 5450 fluorescence intensity (a.u.); and “TTAAATTGCCTCGCCCCACTGACCGCCGCCGCTTGAGCTGCGGAGTCACCTAGTGCAG”, with 23000 fluorescence intensity (a.u.).
